The source of these data is patent publication US20120142731A1, “METHODS OF INHIBITING VIRAL INFECTION” (Functional Genetics, Inc., priority 2007, published 2012).

For one experiment, the system named is HIV. It counts as cell-based.
The test system of a further experiment is influenza virus. It counts as cell-based.

Consider `CC(C)(C)NCc1cc(Nc2ccnc3cc(Cl)ccc23)cc(-c2ccc(Cl)cc2)c1O` [Compound R24, 4′-chloro-5-[(7-chloro-4-quinolinyl)amino]-3-(1,1-dimethylethylamino)methyl [1,1′-biphenyl]-2-ol], for which the “inhibition of HIV (luciferase detected)” value with HIV is “complete inhibition”. For the same compound, in the experiment with influenza virus, the “inhibiting influenza viral activity” value was “remarkably effective”.
